Laboratory results as given in PubChem BioAssay AID488969 (Vanderbilt High Throughput Screening Facility, 2010).
In all, about 110,000 compounds were measured (“z-score”: median about -0.1, highest 2% from about 2 on). This is one part of the list. Activity calls are given as the source filed them.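 Rule for the calls: active = z-score in the third read window above 3 or below -3; inactive = the rest.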

The compounds below were run against Metabotropic glutamate receptor 8 (Rattus norvegicus) (UniProt P70579) (assay: mGluR8 Gi/Go-coupled signaling modulation – cell-based, rat, thallium flux, HTS, primary screen (AID 488969)). Conditions: HEK293 rat mGluR8, GIRK (G protein-gated inwardly rectifying potassium channel) thallium flux, FluoZin2; at 10 µM; stronger effect = higher value; submaximal glutamate (EC20) added with thallium.
UniProt P70579, sequence (P70579 whole entry, looked up): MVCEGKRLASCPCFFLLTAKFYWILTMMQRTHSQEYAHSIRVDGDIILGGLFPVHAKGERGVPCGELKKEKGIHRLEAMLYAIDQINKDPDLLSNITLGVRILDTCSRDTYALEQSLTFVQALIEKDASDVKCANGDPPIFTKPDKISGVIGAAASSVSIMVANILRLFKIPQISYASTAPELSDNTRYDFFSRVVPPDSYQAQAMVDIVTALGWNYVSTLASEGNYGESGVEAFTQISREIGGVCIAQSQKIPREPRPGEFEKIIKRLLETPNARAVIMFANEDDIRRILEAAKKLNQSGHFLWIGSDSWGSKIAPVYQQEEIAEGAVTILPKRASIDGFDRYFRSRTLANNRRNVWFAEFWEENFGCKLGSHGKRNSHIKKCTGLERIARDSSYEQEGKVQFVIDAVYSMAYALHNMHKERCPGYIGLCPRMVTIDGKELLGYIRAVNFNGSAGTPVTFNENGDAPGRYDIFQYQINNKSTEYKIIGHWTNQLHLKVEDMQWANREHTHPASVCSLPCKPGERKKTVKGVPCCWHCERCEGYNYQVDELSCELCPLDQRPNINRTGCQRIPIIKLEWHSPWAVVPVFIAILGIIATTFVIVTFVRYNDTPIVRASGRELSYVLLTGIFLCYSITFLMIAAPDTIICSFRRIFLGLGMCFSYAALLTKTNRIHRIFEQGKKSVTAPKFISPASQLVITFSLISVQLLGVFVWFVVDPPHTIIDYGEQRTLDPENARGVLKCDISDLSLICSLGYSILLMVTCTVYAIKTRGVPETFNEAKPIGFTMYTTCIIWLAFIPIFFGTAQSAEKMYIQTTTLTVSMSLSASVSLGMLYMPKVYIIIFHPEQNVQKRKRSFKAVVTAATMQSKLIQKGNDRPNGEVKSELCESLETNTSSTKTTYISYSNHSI

SMILES | z-score
COc1cc2c(cc1/C=C1/NC(=O)N(c3ccccc3)C1=O)OCO2 | -0.0749
Cc1c(C#N)c(N=CN(C)C)c(C(=O)c2ccccc2)n1-c1ccccc1 | 0.0655
CC(C)C(=O)Nc1nnc(Cc2ccccc2)s1 | -0.0622
Cc1ccc(/C=N\n2c(-c3ccccc3)n[nH]c2=S)s1 | 0.798
CC(=O)c1cc2c(cc1NS(=O)(=O)c1ccc(C)cc1)OCO2 | -0.152
COc1ccc(NC(=O)c2cc3n(n2)C(C(F)(F)F)CC(c2ccc4c(c2)OCO4)N3)cc1OC (centres undefined) | -0.545
COc1ccc(-c2nnc3n(CCc4ccccc4)c(=O)c4ccccc4n23)c(OC)c1 | -0.0723
COc1ccc(-n2cnc3cc(NCc4ccccn4)ccc32)cc1 | -0.28
CSc1ccc(/C=N/NC(=O)c2sccc2C)cc1 | -0.312
CCOC(=O)c1ccc(NC(=O)CSc2nc(C)cc(=O)[nH]2)cc1 | -0.351
S=C(NCCc1ccccc1)NC1CCCCCC1 | 0.365
COc1cc(CCC(=O)OCC(=O)Nc2cccc(S(=O)(=O)N(C)C)c2)cc(OC)c1OC | -0.287
Cc1nc2sc(C(c3ccco3)N3CCC4(CC3)OCCO4)c(O)n2n1 (centres undefined) | -0.121
CC1(C)NC(=O)N(CC(O)COc2ccc(-c3ccc(C#N)cc3)cc2)C1=O (centres undefined) | active: 5.36
CNS(=O)(=O)c1cccc(C(=O)Nc2cccc(Cl)c2)c1 | -0.721
COc1ccc(C(=O)CSc2nnc(NC(=O)C3CC(=O)N(c4ccccc4)C3)s2)cc1 (centres undefined) | -0.542
CCOC(=O)c1cnc2c(OC)cccc2c1N1CCN(c2ccc(OC)cc2)CC1 | 0.342
CCOCCCNC(=O)C(c1ccc(C)cc1)N(Cc1ccc2c(c1)OCO2)C(=O)CNC(C)=O (centres undefined) | -0.231
O=S(=O)(/N=C(/Nc1ccc(F)cc1F)c1ccc(Cl)cc1)c1ccccc1 | -0.175
CCOC(=O)C1=C(c2ccccc2)OC(N)=C(C#N)C1C1CCCCC1 (centres undefined) | -0.435
CCOC(=O)CC1C(=O)NCCN1C(=O)c1cc2c(=O)n3ccccc3nc2s1 (centres undefined) | -0.533
CC(C)Oc1cccc(C(=O)NC(=S)N2CCN(c3ccc(C(F)(F)F)cc3[N+](=O)[O-])CC2)c1 | active: 6.72
CC(=O)Nc1ccc(N2C(C(C)=O)=NN(c3ccc(Cl)cc3)C2c2sccc2C)cc1 (centres undefined) | -0.0679
Cc1c(NC(=O)CSc2nnc(COc3ccccc3)n2-c2ccccc2)c(=O)n(-c2ccccc2)n1C | -0.223
CC(C)(CNc1ccc([N+](=O)[O-])cc1Cl)CNS(C)(=O)=O | -0.224
CC1CCCC(C)N1CCNC(=O)Nc1ccc(Cl)cc1 (centres undefined) | 1.09

SMILES | z-score
COC(=O)C1(C)CCc2cc(OC)ccc2C1=O (centres undefined) | -0.225
O=C(Cn1ccc2ccccc2c1=O)NCC1COc2ccccc2O1 (centres undefined) | 0.138
O=C(N/N=C/c1cc(Br)ccc1O)C(=O)Nc1ccccc1OC(F)(F)C(F)F | -0.416
CCN(CC)CCn1c2ccc(Cl)cc2c2nc(C)sc21 | 0.617
O=C(NCc1ccco1)C1CCC(CNS(=O)(=O)c2cccc3cccnc23)CC1 (centres undefined) | 0.112
CCOC(=O)c1cnn(-c2ccc(Cl)cc2)c1C1CCN(C(=O)OC(C)(C)C)CC1 | -0.27
Cc1ccc(-c2nnc(SCC(=O)N/N=C/c3c(C)nn(-c4ccccc4)c3C)n2-c2ccccc2)cc1 | -2.13
O=C(Cn1ncc2c1-c1ccccc1OC2)N1CCN(Cc2ccc3c(c2)OCO3)CC1 | 1.96
O=C(CSCCO)Nc1ccccc1 | active: 3.04
COc1ccc(CCN(Cc2ccc(C(C)C)cc2)S(=O)(=O)c2ccc(S(=O)(=O)N(C)C)cc2)cc1OC | -0.134
COc1ccc2c(c1)c(CC(=O)Nc1ccc(C(C)=O)cc1)c(C)n2C(=O)c1ccc(Cl)cc1 | 0.181
OC(c1ccccc1)c1nc2ccccc2s1 (centres undefined) | -0.283
CCOC(=O)CSc1nnc(-c2ccc(S(=O)(=O)NCc3cccs3)cc2)o1 | -0.23
c1ccc(N2CCN(c3nc(NCc4ccco4)c4ccccc4n3)CC2)cc1 | -0.399
Cc1cc(C)nc(NS(=O)(=O)c2ccc(NC(=O)CCC3COc4ccccc4O3)cc2)n1 (centres undefined) | -0.4
O=C(CCCCCN1C(=O)c2ccccc2C1=O)Oc1ccc2c3c(c(=O)oc2c1)CCC3 | -0.113
Cc1ccc(NC(=O)C2CCN(S(C)(=O)=O)CC2)cc1C | 0.424
CCOc1cc(CNc2ccccc2)cc(Br)c1OCc1ccc(F)cc1 | -0.142
CCCc1n[nH]c2c1/C(=N\O)CCC2 | 0.258
O=C(Nc1ccc(-c2nc3ccccc3o2)c(O)c1)c1cc(-n2cnnc2)ccc1Cl | -0.0868
CCCCNC(=O)CCn1c(=O)c2ccccc2n(Cc2ccc(Cl)cc2)c1=O | -0.00943
CCOC(=O)C1=C(C)NC(=O)NC1c1cc2c(cc1Br)OCO2 (centres undefined) | -0.038
O=C(OCc1ccc(Cl)cc1)c1ccccc1C(=O)c1ccccc1 | -0.635
COc1ccc(Cn2c(SCc3cc(C)ccc3C)nc3cc(OC)c(OC)cc3c2=N)cc1 | -0.419
CCCn1c(N)c(C(=O)CSc2nc(C)cs2)c(=O)n(C)c1=O | 0.109
CC(=O)c1c(C)[nH]c(-c2ccccc2)c1C | -0.274

SMILES | z-score
Cc1ccc(CNc2nc3c([nH]2)c(=O)n(C)c(=O)n3C)cc1 | -0.17
COc1ccccc1NC(=O)C1CCN(c2ncccn2)CC1 | 1.08
COC(=O)c1ccccc1NC(=O)c1ccco1 | -0.866
CCCSc1nc(NCc2ccco2)c2c3c(sc2n1)COC(C)(C)C3 | 0.73
Cc1cc(C)n(CC(O)COc2ccc(OCC(O)Cn3nc(C)cc3C)cc2)n1 (centres undefined) | 0.123
O=C(CSc1nnc(-c2ccco2)o1)NC1CC2CCC1C2 (centres undefined) | 0.346
CCc1cccc(NC(=O)C2CCN(S(=O)(=O)c3cccs3)CC2)c1 | 0.0737
COc1cc(C)c(S(=O)(=O)Nc2ccc(CC(=O)O)cc2)cc1C | 2.01
O=C(Nc1ccn(Cc2c(F)c(F)c(F)c(F)c2F)n1)c1ccc(COc2ccccc2Cl)cc1 | -0.215
COc1ccc(/C=N/NC(=O)c2ccn[nH]2)cc1COc1ccc(Cl)cc1Cl | -0.25
COc1ccc(C(=O)Nc2cc(OC)c(NC(=O)c3ccco3)cc2OC)cc1 | -0.196
O=S(=O)(NCCSc1nnnn1-c1ccccc1)c1cccs1 | -0.0979
CCN(CC)S(=O)(=O)c1ccc(NC(=O)C(OC)c2ccccc2)cc1 (centres undefined) | 0.185
Cc1cc(=O)oc(C)c1C(=O)NCC1COc2ccccc2O1 (centres undefined) | -0.0515
O=C(/C=C/c1ccccc1)Nc1ccc(CN2CCOCC2)cc1 | -0.396
CCN(CC)c1ccc(C(=O)N/N=C(\C)c2ccc(O)cc2)cc1 | -0.249
Oc1ccc(/C=N/n2c3ccccc3c3ccccc32)cc1 | -0.134
CNC(=O)NC(=O)C(C)OC(=O)c1oc2ccccc2c1CSc1ccc(Cl)cc1 (centres undefined) | -0.372
COc1ccc(S(=O)(=O)N2CN(Cc3ccco3)c3nc4ccccc4nc32)cc1 | -0.783
O=C(NC1CC1)c1ccc2c(c1)NC(=O)c1ccccc1S2 | -0.887
Clc1ccc(Cn2c(-c3cccnc3Cl)nc3ccccc32)c(Cl)c1 | 0.437
CC(=O)c1ccc(OC(C)C)c(Cc2c(O)nc(N)[nH]c2=O)c1 | -0.337
O=c1[nH]c(=O)n(-c2ccccc2)c2c1C(C(F)(F)F)(C(F)(F)F)N=C(C1CCCCC1)N2 | 0.083
O=C(Nc1ccccc1)c1ccc(S(=O)(=O)N(CCO)CCO)cc1 | -0.105
CCn1c(C)[n+](CCOCC[n+]2c(C)n(CC)c3cc(Cl)c(Cl)cc32)c2cc(Cl)c(Cl)cc21 | -0.0328
O=C(CC1CCCCC1)N1CCC(c2nc(-c3ccc(S(=O)(=O)N4CCCC4)cc3)no2)CC1 | -0.557

SMILES | z-score
O=C(COc1ccccc1)N1CCc2ccccc21 | -0.0743
O=C(CSc1nnc(-c2ccc(Br)cc2)o1)Nc1cccc2ccccc12 | 0.475
Cc1[nH]n(-c2ncc(-c3ccc(Cl)cc3)s2)c(=O)c1C(c1ccc(Cl)cc1)C(C#N)C#N (centres undefined) | 1.02
Cc1cccc(OCCCC(=O)O)c1 | 0.134
O=C(Nc1ccc(N2CCOCC2)cc1)c1cn2ccccc2n1 | -0.142
c1ccc(-c2ccc(C3=Nn4c(nnc4-c4cc(-c5ccccc5)n[nH]4)SC3)cc2)cc1 | -0.236
O=C(O)/C=C/C(=O)Nc1ccccc1-c1ccccc1NC(=O)/C=C/C(=O)O | 0.157
COc1ccc2c(c1OC)C(=O)OC2Nc1nc(-c2ccccc2)cs1 (centres undefined) | -0.133
CC(=C1C(=O)c2ccccc2C1=O)N1CCC(C(N)=O)(N2CCCCC2)CC1 | -0.313
CCC(C(=O)NC1CCCC1)N(Cc1cccs1)C(=O)Cn1nnc(-c2ccc(OC)c(OC)c2)n1 (centres undefined) | 0.331
COC(=O)CSc1nnc(-c2ccco2)n1Cc1ccco1 | -0.57
CN(C)c1nc(N2CCN(c3ccc(F)cc3)CC2)c(C#N)c(=O)o1 | 0.0312
Cc1ccc(OCCn2cc(C#N)c3ccccc32)cc1 | 0.129
Cc1c2c(n3c(nc4ccccc43)c1C#N)N(c1ccccc1)CC2 | -0.122
COc1ccc(N2CCN(Cc3cc(=O)oc4ccc(Cl)cc34)CC2)cc1 | 0.284
O=C(CSc1nncn1-c1ccccc1)NCc1cccs1 | -0.0153
Cc1c(NS(=O)(=O)c2ccc3[nH]c(=O)[nH]c3c2)c(=O)n(-c2ccccc2)n1C | 0.504
Cc1cc2cc(CN(CCCN3CCOCC3)C(=O)NC3CCCCC3)c(=O)[nH]c2cc1C | 0.705
Cc1cc(C)c(S(=O)(=O)Nc2ccc(-c3cn4ccccc4n3)cc2)c(C)c1 | 0.241
O=C(CP(=O)(c1ccccc1)c1ccccc1)N/N=C/c1cc(Br)cc(Br)c1O | -0.352
Brc1ccccc1Cn1c(-c2cncs2)nc2ccccc21 | -1.37
O=C(O)c1ccc(N2C(=O)CC(Cc3ccccc3)C2=O)cc1 (centres undefined) | -0.0597
O=C(Cn1c(=O)oc2cc(S(=O)(=O)N3CCCC3)ccc21)N1CCc2ccccc2C1 | -0.0295
O=C(Nc1ccon1)c1ccc(Cl)s1 | -0.406
CSc1nc(C)c(CCOCc2ccccc2)c(=O)[nH]1 | -0.044
Cc1ccc(/C=N/NC(=O)C2CC(=O)N(c3ccccc3)C2)s1 (centres undefined) | -0.106
